{"source": "patent US20240398973A1", "about": "“ENGINEERED ANTIBODY COMPOUNDS AND CONJUGATES THEREOF” (Eli Lilly and Company, priority 2017, published 2024)", "format_in_all_cases": "cell-based", "key": {"[1]": {"test_system": "Mouse neutrophils purified from marrow", "experiment": "Mouse PMN ROS production", "settings": "relative to 10000 nM fMLF, AUC 5 minutes (Table 8c)"}, "human primary PMNs": {"test_system": "human primary PMNs", "experiment": "PMN reactive oxygen species (ROS) production, luminol-amplified chemiluminescence", "settings": "for ROS Production by PMNs: relative to 10 uM fMLF, AUC 5 minutes (Table 8a)"}, "[2]": {"test_system": "primary human polymorphonuclear neutrophil (PMN)", "experiment": "PMN chemotaxis (transwell, modified Boyden chamber)", "settings": "for PMN Chemotaxis Towards Formyl Peptides: relative to 100 nM fMLF, raw migration values (Table 4b)", "protocol": "Chemotaxis is measured by observing primary human polymorphonuclear neutrophil (PMN) migration across transwell membranes (Corning #3415) towards antibody conjugates in a modified Boyden chamber assay. Approximately 2-4×10^5 cells from neutrophil-enriched preparations are seeded in upper transwell chambers on membranes with 3.0 um pores. The lower transwell chambers contain solutions of buffer alone and fMLF (N-formyl-Met-Leu-Phe peptide as positive control) and experimental antibody bioconjugates. […] Cell numbers are determined using standard curves. All data are transformed to percent relative to the maximal fMLF response for each individual experiment."}}, "note": "At least one peptide structure holds a part that was inferred or is arguable (an end, a ring closure or a residue).", "data": [{"smiles": "CSCC[C@H](NC=O)C(=O)N[C@@H](CC(C)C)C(=O)N[C@@H](Cc1ccccc1)C(=O)O", "note": "[fMLF, N-formyl-Met-Leu-Phe, reference compound]", "values": [{"measurement": "Mouse PMN ROS Production", "setting": "[1]; 10 nM", "value": 17.3, "unit": "percentage"}, {"measurement": "Mouse PMN ROS Production", "setting": "[1]; 30 nM", "value": 16.2, "unit": "percentage"}, {"measurement": "Mouse PMN ROS Production", "setting": "[1]; 100 nM", "value": 16.8, "unit": "percentage"}, {"measurement": "Mouse PMN ROS Production", "setting": "[1]; 300 nM", "value": 18.3, "unit": "percentage"}, {"measurement": "Mouse PMN ROS Production", "setting": "[1]; 1000 nM", "value": 30.2, "unit": "percentage"}, {"measurement": "Mouse PMN ROS Production", "setting": "[1]; 3000 nM", "value": 70.6, "unit": "percentage"}, {"measurement": "Mouse PMN ROS Production", "setting": "[1]; 10000 nM", "value": 100.0, "unit": "percentage"}, {"measurement": "ROS Production by PMNs", "setting": "human primary PMNs; 1 pM", "value": 6.6, "unit": "percentage"}, {"measurement": "ROS Production by PMNs", "setting": "human primary PMNs; 10 pM", "value": 7.7, "unit": "percentage"}, {"measurement": "ROS Production by PMNs", "setting": "human primary PMNs; 100 pM", "value": 7.9, "unit": "percentage"}, {"measurement": "ROS Production by PMNs", "setting": "human primary PMNs; 1 nM", "value": 10, "unit": "percentage"}, {"measurement": "ROS Production by PMNs", "setting": "human primary PMNs; 10 nM", "value": 13.1, "unit": "percentage"}, {"measurement": "ROS Production by PMNs", "setting": "human primary PMNs; 100 nM", "value": 50.7, "unit": "percentage"}, {"measurement": "PMN ROS production, Exposure: Cyclosporin H", "setting": "human primary PMNs; 300 nM, PMNs pre-incubated with 1 uM Cyclosporin H for 30 minutes, relative to fMLF (Table 12a)", "value": 20.6, "unit": "percentage"}, {"measurement": "ROS Production by PMNs", "setting": "human primary PMNs; 1 μM", "value": 85.7, "unit": "percentage"}, {"measurement": "ROS Production by PMNs", "setting": "human primary PMNs; 10 μM", "value": 100, "unit": "percentage"}, {"measurement": "concentration at which PMN migration is maximally induced", "setting": "[2]", "value": 10, "unit": "nM"}, {"measurement": "PMN Chemotaxis Towards Formyl Peptides", "setting": "[2]; 1 nM", "value": 66.7, "unit": "%"}, {"measurement": "PMN Chemotaxis Towards Formyl Peptides", "setting": "[2]; 3 nM", "value": 32.7, "unit": "%"}, {"measurement": "PMN Chemotaxis Towards Formyl Peptides", "setting": "[2]; 10 nM", "value": 98.9, "unit": "%"}, {"measurement": "PMN Chemotaxis Towards Formyl Peptides", "setting": "[2]; 100 nM", "value": 100.0, "unit": "%"}, {"measurement": "PMN Chemotaxis Towards Formyl Peptides", "setting": "[2]; 300 nM", "value": 82.9, "unit": "%"}, {"measurement": "PMN Chemotaxis Towards Formyl Peptides", "setting": "[2]; 1000 nM", "value": 45.9, "unit": "%"}]}]}
